In general, % Inhibition refers to the relative decrease from the control value, in per cent.

The structures appear in SMILES notation. Out of some 150,000 compounds screened, about 540 (0.36%) showed an effect of 50% or more. The list shows a part of the results.

In this experiment the test system is Plasmodium falciparum. Briefly: Primary screen in NF54 nanoGlo assay, in single point, at 2uM, 72h; a lower Z score goes with more inhibition. It counts as functional, Erythrocyte. Particulars: timepoint 72 hour.
Take `COc1ccc(C(=O)NC(c2ccccc2)[C@H]2C[C@H](O)C2)cc1` (stereo partly drawn): the “% Inhibition” value is given as -7% and the Z score was 0.92.
With `O=C(C[C@@]1(O)C(=O)N(Cc2ccc3c(c2)OCO3)c2ccccc21)c1ccccn1`, the “% Inhibition” value is 5% and the Z score is recorded as -1.02.
For `CCCOc1ccccc1CCNC(=O)N1CCNC(=O)[C@@H]1CC(=O)NC` the same measures were -6% and 0.87.
Regarding `CCc1nc(N)n(CC(=O)NCc2ccccc2)c(=O)c1C`, the “% Inhibition” value amounted to 5% and the Z score was -0.49.
Take `O=C(NC1CCCCC1)C1(NCc2c[nH]c3ccccc23)CCCCC1`: the “% Inhibition” value came to 6% and the Z score is on record as -0.89.
For `Cc1cc(-c2nc(C3(C)CCC3)no2)cnn1` the same measures were -8% and 1.5.
Regarding `O=C(c1cnccn1)N(Cc1ccco1)c1ccc(Cl)cc1`, the “% Inhibition” value was found to be 3% and the Z score was -0.64.
Regarding `Cc1cc(C)cc(CN2CCCN(c3ccc(C)cc3NC(=O)Cc3ccc(F)cc3)C2=O)c1`, the “% Inhibition” value was 39% and the Z score is -5.23.
For the molecule `CCc1sc(C(C)NS(=O)(=O)C(C#N)CC)cc1C` (stereo not drawn), the “% Inhibition” value came to 3% and the Z score was -0.49.
In the same order, the values of `Cc1nccn1C[C@H]1CCCN(c2nccnc2C#N)C1` are 5% and -0.91.
For `CCC(NS(=O)(=O)CCOc1ccccc1F)[C@H]1C[C@H](O)C1` (stereo partly drawn) the same measures were 3% and -0.47.
For `CCN(CC(=O)NCC1CCCCC1)CC(=O)Nc1ccc(NC(C)=O)cc1` the same measures were -6% and 0.77.
In the case of `CCC(CC)NC(=O)Nc1ccc(Cl)cc1Cl`, the “% Inhibition” value was -3% and the Z score is on record as 0.42.
As for `c1c[nH]c(-c2ccc(CN3CCCC3)s2)n1`, the “% Inhibition” value is 0% and the Z score is reported as -0.03.
With `CC(C)c1ccc(CN2CCn3nc(CNc4cnccn4)cc3C2)cc1`, the “% Inhibition” value was -7% and the Z score came to 0.85.
In the case of `Cc1noc(CCC(=O)N2CC(C)(O)C2)n1`, the “% Inhibition” value is given as -8% and the Z score is reported as 1.19.
For `CC(C)c1[nH]ccc1C(=O)N[C@@H](C)c1cnn(C)c1` the same measures were -3% and 0.58.
`O=S(=O)(c1ccccc1)c1ccc(-c2nnc(-c3ccccc3Cl)o2)cc1`: the “% Inhibition” value was -8% and the Z score is listed as 1.27.
In the same order, the values of `CCOC(=O)c1cc(-c2cccc(NC(=O)c3ccccc3F)c2)n(-c2cccc(C)c2)n1` are -8% and 1.15.
With `Cc1ccc(F)c(NS(=O)(=O)c2cc3c(=O)[nH]ncn3c2)c1`, the “% Inhibition” value amounted to 1% and the Z score is on record as -0.19.
In the same order, the values of `COc1ccc2cc(C(=O)N3CC(n4cccn4)C3)n(C)c2c1` are -8% and 1.51.
Take `O=C(CC(F)(F)F)NCc1noc(Cc2ccccc2)n1`: the “% Inhibition” value stood at 21% and the Z score is -2.63.
Consider `CCc1ccccc1NC(=O)N1CCC2(CCO2)CC1`, for which the “% Inhibition” value was -2% and the Z score was 0.21.
`Cc1cc(CNCCc2nncn2C(C)C)cc(C)c1OCc1ccccc1Cl`: the “% Inhibition” value was -6% and the Z score is on record as 1.32.
On to `O=C(c1ncccc1O)N1CCN(Cc2ccncc2)[C@@H]2CS(=O)(=O)C[C@@H]21`, for which the “% Inhibition” value worked out at 12% and the Z score was -1.5.
In the same order, the values of `O=C([C@@H]1Cc2ccccc2O1)N1CCc2n[nH]cc2C1` are 7% and -1.19.
In the same order, the values of `COc1cccc(-n2nc(C)c(CCC(=O)N3CCC[C@H]3c3ccc4c(c3)OCCCO4)c2C)c1` are 0% and 0.05.
`COc1ccccc1OCC(=O)Nc1ccc2c(c1)C(=O)N1CCC[C@H]1C(=O)N2`: the “% Inhibition” value is -13% and the Z score is 1.73.
In the same order, the values of `CC(=O)c1ccc(F)c(CCCn2ccnc2)c1` are 2% and -0.32.
With `O=C(C[C@H](c1cccc(C(F)(F)F)c1)c1cn(Cc2ccccc2)c2ccccc12)NCc1ccccc1`, the “% Inhibition” value was -2% and the Z score is 0.22.
In the case of `CCc1cnc(CNC(=O)N2CCC[C@H]2Cc2ccnn2C)s1`, the “% Inhibition” value is 2% and the Z score was -0.38.
In the same order, the values of `Cc1nc2[nH]nc(N)c2c(C)c1C1=CCCCC1` are 7% and -0.89.
For `Clc1ccc(C2(c3nnc(-c4cc(-c5ccccc5)n[nH]4)o3)CCOCC2)cc1` the same measures were -3% and 0.49.
On to `Cc1nonc1CN(C)Cc1cc(-c2cccs2)ccc1OCC(=O)O`, for which the “% Inhibition” value is recorded as -5% and the Z score was found to be 0.92.
For `Cc1cc(NC(=O)N(CCO)C2CC2)no1` the same measures were -17% and 3.36.
On to `CCOc1ccc(CCNC(=O)C2CCN(c3ncnc4oc(C)c(C)c34)CC2)cc1OCC`, for which the “% Inhibition” value is given as -1% and the Z score was determined as 0.17.
In the same order, the values of `O=C(CC1(c2ccccc2F)CC(=O)N(C2CCCC2)C1=O)N(CC1CCC1)CC1CCCO1` (stereo not drawn) are -11% and 2.07.
For `CCC(C(=O)N1C2C=CCC1CC2)c1ccccc1` (stereo not drawn), the “% Inhibition” value was -7% and the Z score amounted to 0.87.
In the same order, the values of `Cc1nn(C)cc1[C@H]1OCC[C@@H]1NC(=O)Nc1cccc(-c2ncco2)c1C` are 1% and -0.12.
For `COc1ccc(S(=O)(=O)N(C)Cc2c[nH]nc2C)c2c1CCCC2` the same measures were -11% and 1.44.
`CC(C)NC(=O)N[C@H]1CO[C@@H](CN2CCC(F)(F)C2)[C@@H]1O`: the “% Inhibition” value is 17% and the Z score was -2.01.
For `CCCN1C(=O)c2ccccc2C(C(=O)N2CCOCC2)C1c1cc(OC)c(OC)c(OC)c1` (stereo not drawn) the same measures were -12% and 1.36.
Turning to `Cn1cncc1-c1cccc(-c2cc[nH]n2)c1`, the “% Inhibition” value stood at 5% and the Z score is recorded as -0.67.
In the same order, the values of `Cn1cc(-c2ncnn2CC(F)(F)F)ccc1=O` are -22% and 2.36.
In the same order, the values of `COCC(C)N(C)CC(O)c1ccc(OC(F)(F)F)cc1` (stereo not drawn) are -2% and 0.27.
In the same order, the values of `CC(OCC1CCCO1)C(=O)N1CCCC1(C)C(=O)OC(C)(C)C` (stereo not drawn) are -7% and 1.28.
On to `CCOc1cccc(OCC)c2c(C)[n+](-c3ccc(C)cc3)c(C)c1-2`, for which the “% Inhibition” value is recorded as -1% and the Z score was found to be 0.12.
For `CC(C)Cn1cc(C(=O)OCc2ccc3[nH]nnc3c2)cn1` the same measures were -8% and 1.07.
In the same order, the values of `O=C(NCCN1CCOCC1)c1cc2n(n1)CCN(Cc1ccccc1)C2=O` are -14% and 1.92.
For the molecule `COc1ccc(NC(=O)[C@H]2CC[C@H](Cn3cnc4ccccc4c3=O)CC2)cc1Cl`, the “% Inhibition” value turned out to be 2% and the Z score is given as -0.32.
For `O=C1N(C2CCCCC2)CCC[C@@]12CCN(c1ncnc3[nH]cnc13)C2` the same measures were -4% and 0.53.
For `Cc1noc(C)c1C(=O)NCC1CCN(Cc2nnc(-c3ccccc3)o2)CC1` the same measures were 12% and -1.49.
For `CCn1ccnc(Oc2ccc(C)nc2)c1=O` the same measures were -14% and 1.59.
As to `COc1ccc(CN2CCc3ccccc3C2)cc1OC[C@@H](O)CN1CCCCC1`, the “% Inhibition” value is reported as -3% and the Z score came to 0.38.
In the same order, the values of `CCn1ccc(CN(C)Cc2nncn2CC)n1` are -10% and 1.02.
For the molecule `COc1ccc2[nH]c3c(c2c1)CCN1C(=O)N([C@@H](C)C(=O)NC2CCCCC2C)C(=O)[C@]31C` (stereo partly drawn), the “% Inhibition” value was -1% and the Z score came out at 0.17.
In the same order, the values of `O=c1ccc(-c2ccccc2)nn1C1CCCC1` are -12% and 1.59.
Take `CCCNS(=O)(=O)c1ccc(/C=C\c2onc(C)c2NC(C)=O)cc1`: the “% Inhibition” value was -20% and the Z score was found to be 2.94.
Consider `O=S(=O)(c1ccc2c(c1)CCO2)N1CC[C@H](c2noc(-c3ccco3)n2)C1`, for which the “% Inhibition” value is listed as -7% and the Z score was 1.19.
For `Cc1ccnc(OCC(=O)N2CCN(c3ccc(N(C)C)nn3)CC2)n1`, the “% Inhibition” value is -13% and the Z score amounted to 1.14.
Take `O=C1C[C@H](NS(=O)(=O)c2cccs2)CN1c1ccc2c(c1)OCCO2`: the “% Inhibition” value is listed as -2% and the Z score is recorded as 0.31.
For `CCN(CCc1nccs1)C(=O)Nc1cccnc1OCC(F)F` the same measures were -6% and 0.81.
In the same order, the values of `CC[C@]1(C(=O)OC)N[C@@H](c2cccc(OC(F)F)c2)[C@H]2C(=O)N(C)C(=O)[C@H]21` are -3% and 0.44.
Turning to `O=C(Nc1ccc2c(c1)OCCCO2)N1CC2CC=CCC2C1` (stereo not drawn), the “% Inhibition” value turned out to be 0% and the Z score is -0.01.
For `CCN(C(=O)c1cc(C)n(-c2nccs2)c1C)c1nc(C)cs1` the same measures were -2% and 0.19.
For `O=C(NCCCn1ccnc1)N1CCOC2CCCC21` (stereo not drawn) the same measures were -7% and 1.06.
For `COc1c(-c2ccccc2)sc2nc(C)cc(C)[n+]12` the same measures were 1% and -0.08.
With `NC(=O)c1ccc(-c2noc(C3CCC(F)(F)CC3)n2)cn1`, the “% Inhibition” value is -15% and the Z score came to 1.62.
With `O=C1C[C@H](COCc2ccccc2)c2c[nH]nc2N1`, the “% Inhibition” value stood at 11% and the Z score is recorded as -1.89.
With `CCn1nc(CC(C)C)cc1-c1nc([C@H]2CCOC2)no1`, the “% Inhibition” value is on record as -10% and the Z score stood at 1.58.
With `CCC(C)C(CO)NC(=O)c1[nH]nc2c1CCc1cc(OC)ccc1-2` (stereo not drawn), the “% Inhibition” value was -15% and the Z score was 1.91.
`O=C(c1ccc(-n2ccnc2-c2cccnc2)o1)N1CCOCC1`: the “% Inhibition” value was -5% and the Z score was found to be 0.62.
In the same order, the values of `Cc1nn(-c2ncnc3[nH]cnc23)c2c1[C@@]1(CC(=O)N2)C(=O)N(Cc2cccc(OC(F)(F)F)c2)c2ccccc21` are -9% and 1.43.
Take `COCC(=O)N1CCCC(C(=O)N[C@@H]2CCCC[C@H]2NC(=O)c2ccccc2)C1` (stereo partly drawn): the “% Inhibition” value is given as -1% and the Z score came to 0.16.
As for `CN(CC(=O)NC1(c2nnc(N)s2)CCCCC1)Cc1ccncc1`, the “% Inhibition” value is reported as -2% and the Z score was 0.32.
For `CCOC(=O)c1cc2n(n1)C[C@@](C)(C(=O)NCCC(C)C)N(c1ccc(C)c(C)c1)C2=O` the same measures were -6% and 0.75.
For `Cc1ccc(O)c(C(=O)N2CC[C@H](N3CCN(C)CC3)[C@H](CCCO)C2)c1` the same measures were -20% and 2.03.
In the same order, the values of `CCN(CC)[C@H](CNc1nnc(C)c(C)c1C#N)CC(C)C` are 1% and -0.12.
On to `Cc1ccccc1OCC(=O)N(CC(F)(F)F)C1CCOCC1`, for which the “% Inhibition” value is recorded as -11% and the Z score was determined as 1.26.
Consider `Cc1[nH]c2ccccc2c1C1CCN(C(=O)CCCn2cncn2)CC1`, for which the “% Inhibition” value is -4% and the Z score stood at 0.55.
On to `CCc1csc(CNC(=O)c2ccc(N(C)C[C@H]3CCCCO3)nc2)n1`, for which the “% Inhibition” value is -3% and the Z score worked out at 0.4.
In the case of `NS(=O)(=O)c1ccc(CCNC(=O)NC2CC2)cc1`, the “% Inhibition” value was -6% and the Z score was 1.26.
Consider `O=C(CNCC1CC1)N1CCc2ccccc2C1`, for which the “% Inhibition” value was -31% and the Z score stood at 3.59.
`O=C(c1ccc(-c2nc(C3CC3)n[nH]2)cc1)N1CCOC[C@@H]1CCO`: the “% Inhibition” value is -1% and the Z score was 0.24.

The values above are taken from ChEMBL document CHEMBL4888484, “Replenishing the malaria drug discovery pipeline: Screening and hit evaluation of the MMV Hit Generation Library 1 (HGL1) against asexual blood stage Plasmodium falciparum ,using a nano luciferase reporter read-out” (2022).
